# Laboratory results published in PubChem BioAssay AID1745853 (National Center for Advancing Translational Sciences (NCATS), 2022).
# Several values for one entry are separate records, joined by “and”; a condition that tells them apart may be missing. Identical values can stand only once. This is one part of the list. These are further read-outs of the screen, such as a control signal, another cell line or another target. No call is given for them. Peptide text beside a SMILES is read from it.
# Experiments:
# Test in all cases: Primary Screen for Target Class Profiling of Small Molecule Inhibitors of Methyltransferases
# [1] = target: Glycine N-methyltransferase (Homo sapiens) (UniProt Q14749); conditions: purified enzyme, MTase-Glo SAH luminescence; measured here: GNMT inhibition; at 40 µM; stronger effect = lower value
# Procedure, shortened: (§1)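 Each enzyme was assayed with SAM and its substrate. SAH formation detected by MTase-Glo luminescence; single-point 40 uM screen[…].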
# [2] = target: Guanidinoacetate N-methyltransferase (Homo sapiens) (UniProt Q14353); conditions: purified enzyme, MTase-Glo SAH luminescence; measured here: GAMT inhibition; at 40 µM; stronger effect = lower value
# Procedure, shortened: as §1
# [3] = target: Histamine N-methyltransferase (Homo sapiens) (UniProt P50135); conditions: purified enzyme, MTase-Glo SAH luminescence; measured here: HNMT inhibition; at 40 µM; stronger effect = lower value
# Procedure, shortened: as §1
# [4] = target: Nicotinamide N-methyltransferase (Homo sapiens) (UniProt P40261); conditions: purified enzyme, MTase-Glo SAH luminescence; measured here: NNMT inhibition; at 40 µM; stronger effect = lower value
# Procedure, shortened: as §1
# [5] = target: Phenylethanolamine N-methyltransferase (Homo sapiens) (UniProt P11086); conditions: purified enzyme, MTase-Glo SAH luminescence; measured here: PNMT inhibition; at 40 µM; stronger effect = lower value
# Procedure, shortened: as §1
# % is set by controls: 0 for no effect and ±100 for the full control effect.
smiles,measurement,setting,value
C[C@@H]1O[C@@H](O[C@H]2[C@@H]3C=CO[C@@H](O[C@@H]4O[C@H](CO)[C@@H](O)[C@H](O)[C@H]4O)[C@@H]3[C@@]3(CO)O[C@@H]23)[C@H](O)[C@H](OC(=O)/C=C/c2ccc(O)c(O)c2)[C@H]1O,"activity change, negative = inhibition",[1],3.51%
same,"activity change, negative = inhibition",[2],-4.23%
same,"activity change, negative = inhibition",[3],3.19%
same,"activity change, negative = inhibition",[4],-13.7%
same,"activity change, negative = inhibition",[5],1.84%
COc1cccc(CC(=O)N[C@@H]2CN(c3ncccn3)C[C@H]2CO)c1,"activity change, negative = inhibition",[1],-4.13%
same,"activity change, negative = inhibition",[2],-6.31%
same,"activity change, negative = inhibition",[3],-4.02%
same,"activity change, negative = inhibition",[4],-8.75%
same,"activity change, negative = inhibition",[5],-9.16%
Cc1ccc(C(=O)Nc2ccc(CN3CCN(C)CC3)c(C(F)(F)F)c2)cc1C#Cc1cnc2[nH]ncc2c1,"activity change, negative = inhibition",[1],-6.4%
same,"activity change, negative = inhibition",[2],10.3%
same,"activity change, negative = inhibition",[3],-12.5%
same,"activity change, negative = inhibition",[4],-7.23%
same,"activity change, negative = inhibition",[5],-6.91%
CCCC1c2cccn2CCN1C(=O)Nc1ccc(OC)cc1 (stereo not given),"activity change, negative = inhibition",[1],-7.37%
same,"activity change, negative = inhibition",[2],5.54%
same,"activity change, negative = inhibition",[3],-31%
same,"activity change, negative = inhibition",[4],-8.45%
same,"activity change, negative = inhibition",[5],-1.42%
CS(=O)(=O)N1C[C@H]2CCN(C(=O)c3cc(F)ccc3F)C[C@H]21,"activity change, negative = inhibition",[1],-2.96%
same,"activity change, negative = inhibition",[2],-2.83%
same,"activity change, negative = inhibition",[3],-0.247%
same,"activity change, negative = inhibition",[4],-4.05%
same,"activity change, negative = inhibition",[5],-2.94%
COc1cc(CNCc2ccccc2C)ccc1OCC(O)CN1CCC(O)CC1 (stereo not given),"activity change, negative = inhibition",[1],-2.48%
same,"activity change, negative = inhibition",[2],1.03%
same,"activity change, negative = inhibition",[3],-15.8%
same,"activity change, negative = inhibition",[4],-3.12%
same,"activity change, negative = inhibition",[5],2.75%
COc1ccccc1N1C(=O)c2cc3ccccc3n2CC1(C)C(=O)NC1CCCCC1 (stereo not given),"activity change, negative = inhibition",[1],-2.11%
same,"activity change, negative = inhibition",[2],0%
same,"activity change, negative = inhibition",[3],7.64%
same,"activity change, negative = inhibition",[4],9.69%
same,"activity change, negative = inhibition",[5],2.77%
Oc1ccc(-c2nc(-c3ccc(F)cc3)c(-c3ccncc3)[nH]2)cc1,"activity change, negative = inhibition",[1],-19.9% and -23.1%
same,"activity change, negative = inhibition",[2],-0.29%
same,"activity change, negative = inhibition",[3],-12.3% and -4.57%
same,"activity change, negative = inhibition",[4],-21.9% and -7.78%
same,"activity change, negative = inhibition",[5],-13% and 25.7%
CN(C)C[C@@H]1CN(C2CCOCC2)C[C@H]1NC(=O)Cc1ccccc1Cl,"activity change, negative = inhibition",[1],-7.22%
same,"activity change, negative = inhibition",[2],-7.34%
same,"activity change, negative = inhibition",[3],-6.11%
same,"activity change, negative = inhibition",[4],-17%
same,"activity change, negative = inhibition",[5],-12.6%
CC1CCC(NC(=O)C2(C)Cn3c(ccc3-c3ccco3)C(=O)N2CCCc2ccccc2)CC1 (stereo not given),"activity change, negative = inhibition",[1],-13.4%
same,"activity change, negative = inhibition",[2],3.28%
same,"activity change, negative = inhibition",[3],-2.68%
same,"activity change, negative = inhibition",[4],-9.48%
same,"activity change, negative = inhibition",[5],-3.29%
O=C(O)C(Cc1ccccc1)NC(=O)C1CCCN1 (stereo not drawn) (H-Pro-Phe-OH; configuration not given here),"activity change, negative = inhibition",[1],0.024%
same,"activity change, negative = inhibition",[2],0.41%
same,"activity change, negative = inhibition",[3],7.92%
same,"activity change, negative = inhibition",[4],-13%
same,"activity change, negative = inhibition",[5],-6.12%
O=C(Nc1ccc(S(=O)(=O)Nc2ccccc2Cl)c(Cl)c1)c1ccccn1,"activity change, negative = inhibition",[1],-6.36%
same,"activity change, negative = inhibition",[2],-13.8%
same,"activity change, negative = inhibition",[3],-3.31%
same,"activity change, negative = inhibition",[4],-28%
same,"activity change, negative = inhibition",[5],-13.8%
O=C(NC[C@H]1O[C@@H](CC(=O)N2CCN(c3ccccn3)CC2)[C@H](O)[C@@H]1O)c1ccco1,"activity change, negative = inhibition",[1],-2.8%
same,"activity change, negative = inhibition",[2],-1.27%
same,"activity change, negative = inhibition",[3],-1.01%
same,"activity change, negative = inhibition",[4],-7.65%
same,"activity change, negative = inhibition",[5],-4.42%
C[C@@H]([C@@H](O)c1ccc(O)cc1)N1CCC(O)(c2ccccc2)CC1,"activity change, negative = inhibition",[1],-5.15%
same,"activity change, negative = inhibition",[2],-12.3%
same,"activity change, negative = inhibition",[3],1.76%
same,"activity change, negative = inhibition",[4],-24.4%
same,"activity change, negative = inhibition",[5],-2.91%
O=C(N[C@H](C1CCNCC1)C1CC(O)C1)c1ccc2nccnc2c1 (stereo not given in full),"activity change, negative = inhibition",[1],-6.63%
same,"activity change, negative = inhibition",[2],-2.96%
same,"activity change, negative = inhibition",[3],-56%
same,"activity change, negative = inhibition",[4],-3.27%
same,"activity change, negative = inhibition",[5],-15.3%
Cn1cc(-c2nc(N3CCOCC3)cc3c2CN(CC2CC2)C3=O)cn1,"activity change, negative = inhibition",[1],-11.7%
same,"activity change, negative = inhibition",[2],-9.63%
same,"activity change, negative = inhibition",[3],-10.1%
same,"activity change, negative = inhibition",[4],-21.9%
same,"activity change, negative = inhibition",[5],-10.3%
CC1(C(=O)NCc2ccc(F)cc2)Cn2cnc(C(=O)NCc3ccccc3F)c2C(=O)N1C1CC1 (stereo not given),"activity change, negative = inhibition",[1],-6.71%
same,"activity change, negative = inhibition",[2],3.15%
same,"activity change, negative = inhibition",[3],-3.56%
same,"activity change, negative = inhibition",[4],-5.67%
same,"activity change, negative = inhibition",[5],-2.44%
CC[C@H](C)/C=C(C)/C=C/C1=CC2=C(Cl)C(=O)[C@](C)(O)[C@H](OC(C)=O)[C@H]2CO1,"activity change, negative = inhibition",[1],-1.89%
same,"activity change, negative = inhibition",[2],3.32%
same,"activity change, negative = inhibition",[3],6.33%
same,"activity change, negative = inhibition",[4],-12.6%
same,"activity change, negative = inhibition",[5],-1.58%
CC(C)CNC(=O)c1ccc2c(=O)n(CC(C)C)c3nn(Cc4ccc(F)cc4)c(=O)n3c2c1,"activity change, negative = inhibition",[1],7.47%
same,"activity change, negative = inhibition",[2],0.005%
same,"activity change, negative = inhibition",[3],7.69%
same,"activity change, negative = inhibition",[4],4.93%
same,"activity change, negative = inhibition",[5],6.18%
CC1CCN(S(=O)(=O)c2ccc3c(ccn3CCC(=O)NC3CCCCC3)c2)CC1,"activity change, negative = inhibition",[1],-0.063%
same,"activity change, negative = inhibition",[2],-0.732%
same,"activity change, negative = inhibition",[3],1.37%
same,"activity change, negative = inhibition",[4],-8.73%
same,"activity change, negative = inhibition",[5],-4.84%
CCc1cc2c(cc3n2CC(C)(C(=O)NC2CCCCC2)N(CC(C)c2ccccc2)C3=O)s1 (stereo not given),"activity change, negative = inhibition",[1],-1.85%
same,"activity change, negative = inhibition",[2],2.81%
same,"activity change, negative = inhibition",[3],-3.35%
same,"activity change, negative = inhibition",[4],3.12%
same,"activity change, negative = inhibition",[5],-2.77%
CCN(C1CCOCC1)C1CN(C(=O)C2CCCCC2)C1,"activity change, negative = inhibition",[1],-3.88%
same,"activity change, negative = inhibition",[2],-4.04%
same,"activity change, negative = inhibition",[3],-3.17%
same,"activity change, negative = inhibition",[4],-9.3%
same,"activity change, negative = inhibition",[5],9.61%
CNC(=O)c1cccc(-c2cnc3[nH]cc(CC(=O)Nc4ccccc4Cl)c3c2)c1,"activity change, negative = inhibition",[1],-47.1%
same,"activity change, negative = inhibition",[2],-17.4%
same,"activity change, negative = inhibition",[3],-20.2%
same,"activity change, negative = inhibition",[4],-45.6%
same,"activity change, negative = inhibition",[5],-20.5%
OCCn1cc(-c2cnc3nnn(Cc4ccc5ncccc5c4)c3n2)cn1,"activity change, negative = inhibition",[1],-8.31%
same,"activity change, negative = inhibition",[2],-18.3%
same,"activity change, negative = inhibition",[3],-7.59%
same,"activity change, negative = inhibition",[4],-27.8%
same,"activity change, negative = inhibition",[5],-20.7%
CC(C)Cc1ccc(S(=O)(=O)NCCn2cnc3ccccc32)cc1,"activity change, negative = inhibition",[1],-4.33%
same,"activity change, negative = inhibition",[2],0%
same,"activity change, negative = inhibition",[3],8.57%
same,"activity change, negative = inhibition",[4],3.62%
same,"activity change, negative = inhibition",[5],3.73%
CC(C)CC[C@@H](O)[C@](C)(O)[C@H]1CC[C@@]2(O)C3=CC(=O)[C@@H]4C[C@@H](O)[C@@H](O)C[C@]4(C)[C@H]3CC[C@]12C,"activity change, negative = inhibition",[1],4%
same,"activity change, negative = inhibition",[2],0.971%
same,"activity change, negative = inhibition",[3],12.1%
same,"activity change, negative = inhibition",[4],-7.21%
same,"activity change, negative = inhibition",[5],7.78%
C=C1C(=O)O[C@@H]2C[C@@]3(C)C[C@@H](O)C[C@H](C)C3=C[C@H]12,"activity change, negative = inhibition",[1],2.4%
same,"activity change, negative = inhibition",[2],6.15%
same,"activity change, negative = inhibition",[3],9.38%
same,"activity change, negative = inhibition",[4],-5.55%
same,"activity change, negative = inhibition",[5],1.05%
CC1(C(=O)NC2CCCCCC2)Cn2c(nc3ccccc32)C(=O)N1CCCc1ccccc1 (stereo not given),"activity change, negative = inhibition",[1],2.03%
same,"activity change, negative = inhibition",[2],6.78%
same,"activity change, negative = inhibition",[3],7.07%
same,"activity change, negative = inhibition",[4],4.66%
same,"activity change, negative = inhibition",[5],-0.516%
CCOC(=O)C(C)Oc1ccc2c(-c3ccccc3)cc(=O)oc2c1C (stereo not given),"activity change, negative = inhibition",[1],-11.6%
same,"activity change, negative = inhibition",[2],3.23%
same,"activity change, negative = inhibition",[3],-3.23%
same,"activity change, negative = inhibition",[4],-13.5%
same,"activity change, negative = inhibition",[5],-15.7%
